Test results from PubChem BioAssay AID1745853 (National Center for Advancing Translational Sciences (NCATS), 2022).
“And” between values parts separate entries of the source, which are not always exact repeats. Equal values may be shown once. The list shows a part of the results. The main result of the screen is listed elsewhere. These columns were measured beside it and carry no call.

What was measured:
Assay in all cases: Primary Screen for Target Class Profiling of Small Molecule Inhibitors of Methyltransferases
[1] = biological target: Glycine N-methyltransferase (Homo sapiens) (UniProt Q14749); settings: purified enzyme, MTase-Glo SAH luminescence; measured here: GNMT inhibition; at 40 µM; stronger effect = lower value
Procedure, shortened: (§1)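 Each enzyme was assayed with SAM and its substrate. SAH formation detected by MTase-Glo luminescence; single-point 40 uM screen[…].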

[2] = biological target: Guanidinoacetate N-methyltransferase (Homo sapiens) (UniProt Q14353); settings: purified enzyme, MTase-Glo SAH luminescence; measured here: GAMT inhibition; at 40 µM; stronger effect = lower value
Procedure, shortened: as §1

[3] = biological target: Histamine N-methyltransferase (Homo sapiens) (UniProt P50135); settings: purified enzyme, MTase-Glo SAH luminescence; measured here: HNMT inhibition; at 40 µM; stronger effect = lower value
Procedure, shortened: as §1

[4] = biological target: Nicotinamide N-methyltransferase (Homo sapiens) (UniProt P40261); settings: purified enzyme, MTase-Glo SAH luminescence; measured here: NNMT inhibition; at 40 µM; stronger effect = lower value
Procedure, shortened: as §1

[5] = biological target: Phenylethanolamine N-methyltransferase (Homo sapiens) (UniProt P11086); settings: purified enzyme, MTase-Glo SAH luminescence; measured here: PNMT inhibition; at 40 µM; stronger effect = lower value
Procedure, shortened: as §1
% is set by controls: 0 for no effect and ±100 for the full control effect.

Structure (SMILES)	activity change, negative = inhibition [1] [%]	activity change, negative = inhibition [2]	activity change, negative = inhibition [3] [%]	activity change, negative = inhibition [4]	activity change, negative = inhibition [5]
CC[C@@]1(O)C(=O)OCc2c1cc1n(c2=O)Cc2cc3ccccc3nc2-1	-11.7	8.43%	7.75	-8.91%	-0.98%
CO/C1=C\C(C)=C\[C@@H](C)[C@@H](O)[C@@H](C)C/C(C)=C/C=C/[C@H](OC)[C@@H]([C@@H](C)[C@@H](O)[C@H](C)[C@@]2(O)C[C@@H](O)[C@H](C)[C@@H](C(C)C)O2)OC1=O	2.56		10.7		
O=C(Nc1ccc(Br)cc1)N1Cc2ccccc2-n2cccc2C1c1cccs1 (stereo not given)	12.7	1.3%	6.61	1.06%	6.78%
N#C/C(=C/c1ccc(O)c(O)c1)C(N)=S	-66.3	4.33%	4.05	-10.6%	-3.05%
Cc1ccc(NC(=O)N2Cc3ccccc3-n3cccc3C2c2ccc(N(C)C)cc2)c(C)c1 (stereo not given)	7.25	2.09%	4.08	2.24%	-10.7%
CCCC[N+]1(C)[C@@H]2CC(OC(=O)[C@H](CO)c3ccccc3)C[C@H]1[C@@H]1O[C@@H]12 (stereo not given in full)	1.56	0.638%	3.93	-8.55%	-4.35%
CC(C)CC(=O)N1CC[C@@H]2COCCN(C)[C@@H]2C1	-3.02	-7.95%	-1.71	-7.86%	-7.03%
CN1C2CCC1CC(OC(=O)N1Cc3ccccc3NC1=O)C2 (stereo not given)	-1.22	6.9%	10.6	-6.84%	4.59%
C[C@H]1C2Cc3ccc(O)cc3[C@@]1(C)CCN2CC1CC1	5.06	9.95%	-40.5	-4.56%	5.42%
Cc1cccc(NC(=O)N2Cc3ccccc3-n3cccc3C2c2cccc(C)c2)c1 (stereo not given)	5.52	8.01%	4.4	2.57%	2.32%
CSc1ccc(C2c3cccn3-c3ccccc3CN2C(=O)Nc2ccc(C)cc2Cl)cc1 (stereo not given)	1.1	0%	0.552	-0.327%	4.67%
Cc1ccc(NC(=O)N2Cc3ccccc3-n3cccc3C2c2ccc(Cl)cc2)c(C)c1 (stereo not given)	-0.85	1.71%	4.2	8.13%	9.01%
CCC(C)/C=C(C)/C=C/C1=CC2=C(Cl)C(=O)C(C)(OC(C)=O)C(=O)C2=CO1 (stereo not given)	-39.3	-3.73%	-9.28	-19.4%	-4.6%
CCOC(=O)c1ccc(NC(=O)N2Cc3ccccc3-n3cccc3C2C)cc1 (stereo not given)	7.04	0.289%	2.24	1.16%	4.07%
CC1CCCC(O)CC(=O)Cc2cc(O)cc(O)c2C(=O)O1 (stereo not given)	5.62	5.61%	5.9	-5.58%	2.88%
COc1ccc(C(C)(C)C)cc1CN[C@H]1C2CCN(CC2)[C@H]1C(c1ccccc1)c1ccccc1	-1	4.26%	-2.54	-21.2%	-11.2%
CCOCCCNC(=O)N1Cc2ccccc2-n2cccc2C1CC (stereo not given)	-0.887	-1.75%	2.34	-2.88%	7.1%
CSc1ccc(C2c3cccn3-c3ccccc3CN2C(=O)NCc2ccc(F)cc2)cc1 (stereo not given)	-5.55	4.28%	-6.61	-10.2%	-1.18%
C[C@]12Cc3cn4c(nc3C=C1CCC1C2CC[C@@]2(C)[C@H]1CC[C@@]2(O)C#N)nc1ccccc14 (stereo not given in full)	-37.7	8.67%	-4.6	-8.31%	-3.56%
CC12CCC3C(CCC4(O)CC(O)CCC34C=O)C1(O)CCC2C1=CC(=O)OC1 (stereo not given)	2.98	0.143%	11.6	-6.2%	6.08%

Structure (SMILES)	activity change, negative = inhibition [1] [%]	activity change, negative = inhibition [2]	activity change, negative = inhibition [3] [%]	activity change, negative = inhibition [4]	activity change, negative = inhibition [5]
COc1ccc(Cl)cc1NC(=O)N1Cc2ccccc2-n2cccc2C1C (stereo not given)	5.5	1.57%	-0.027	-5%	1.09%
COc1ccc(NC(=O)N2Cc3ccccc3-n3cccc3C2c2cccc(Cl)c2)c(OC)c1 (stereo not given)	8.64	1.13%	3.31	2.06%	4.33%
CCNC(=O)C[C@@H]1N=C(c2ccc(Cl)cc2)c2cc(OC)ccc2-n2c(C)nnc21	2.39	0.252% and 2.65%	6.77	-15% and -15.2%	-4.53% and 4.89%
CCc1ccc(NC(=O)N2Cc3ccccc3-n3cccc3C2c2ccccc2C)cc1 (stereo not given)	12.4	0%	10.3	10.1%	6.22%
O=C(Nc1ccc2n(c1=O)C[C@H]1C[C@@H]2CN(C(=O)c2ccccn2)C1)C1CCCCC1	-7.68	-7.82%	-2.14	-16.7%	0.525%
CCC(C)(O)C1(C(=O)O)COC(=O)C1 (stereo not given)	2.9	4.37%	12.8	-8.25%	5.31%
CN(C)C(=O)CC1CCOC2(CCNCC2)C1 (stereo not given)	-5.08	-9.42%	-2.54	-14.4%	4.04%
O=C(NCc1ccc(F)cc1)N1Cc2ccccc2-n2cccc2C1c1cc(F)cc(F)c1 (stereo not given)	9.58	0.827%	3.03	2.3%	5.24%
COc1ccc(OC)c(NC(=O)N2Cc3ccccc3-n3cccc3C2c2ccc(C(C)C)cc2)c1 (stereo not given)	-2.05	2.02%	-8.25	-6.81%	-1.1%
O=C(Nc1cccc(Br)c1)N1Cc2ccccc2-n2cccc2C1c1cccs1 (stereo not given)	6.06	1.74%	4.05	1.97%	4.28%
CN1CCN(c2ccc([N+](=O)[O-])c3no[n+]([O-])c23)CC1	-1.98	-3.03%	5.95	-9.77%	-2.35%
CNc1ncc(C(=O)N2C[C@H]3COc4ccccc4C[C@@]3(C(=O)O)C2)cn1	-2.48	-7.74%	-2.87	-9.65%	-4.08%
COCCCNC(=O)N1Cc2ccccc2-n2cccc2C1c1cccs1 (stereo not given)	4.03	4.32%	-6.84	-4.99%	3.25%
Cc1c(C(=O)Nc2cccc(C(F)(F)F)c2)cc(-c2ccccc2)n1CCCN1CCOCC1	3.26	-7.61%	-18.3	-21.2%	-7.08%
CC(C)(C)OC(=O)NC1[C@H]2CNC[C@@H]12 (stereo not given in full)	0.311	9.69%	3.7	-5.38%	5.12%
CC(N[C@H]1C[C@@H]1c1ccccc1)c1ccc2c(c1)OCCO2 (stereo not given in full)		-3.12%		-17.1%	-12.9%
COc1ccc(CNC(=O)/C=C/c2ccc3[nH]cc(CCN(C)C)c3c2)cc1	-8.1	7.62%	-86.2	-4.74%	5.98%
C/C=C/CN1CC2ON=C(C(=O)O)C2C1 (stereo not given)	-3.46	-5.41%	-0.049	1.65%	-4.43%
COc1cc2c(cc1OCc1ccncc1)NC(=O)C21CCN(Cc2ccccc2)CC1	-22.4	-8.36%	-32.1	-42.5%	0.56%
CCCNC(=O)N1Cc2ccccc2-n2cccc2C1c1cccs1 (stereo not given)	7.06	0%	-7.79	-5.17%	2.4%
